{"source": "the supplement of paper PMC8728848", "binders": {"B1": {"name": "OVGAL11 (Ovis aries), AAF64320 (protein)", "chain": "MDSLPNPYLQSVSLTVCYMVKIKANLLSAFGKNPELQVDFGTGTGQGGNIPFRFWYCDGMVVMNTFTDGSWQKEEKVLTDAFVPGQPFELQFLVLEKEYQVFVKNKPICQFAHRLPLQSVKMLDVRGDIVLTSVDTL"}}, "experiment_in_all_cases": "glycan array binding signal (z-score within array); higher = stronger binding", "conditions_in_all_cases": "glycan notation: IUPAC condensed, linker removed", "key": {"Gal3S4S(b1-4)GlcNAc": {"target": "Gal3S4S(b1-4)GlcNAc", "in_short": "(§1)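 The binding signal is a Z-score computed within each array. Data were drawn from 3228 arrays in the Consortium for Functional Glycomics database, restricted to those with a known protein sequence. Scores were averaged over arrays of the same protein sequence at different concentrations or buffers, and over linkers, and negative values can be taken as non-binding.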"}, "Gal3S6S(b1-4)GlcNAc": {"target": "Gal3S6S(b1-4)GlcNAc", "in_short": "as §1"}, "Gal3S6S(b1-4)GlcNAc6S": {"target": "Gal3S6S(b1-4)GlcNAc6S", "in_short": "as §1"}, "Gal4S(b1-4)GlcNAc": {"target": "Gal4S(b1-4)GlcNAc", "in_short": "as §1"}, "Gal4S6S(b1-4)GlcNAc": {"target": "Gal4S6S(b1-4)GlcNAc", "in_short": "as §1"}, "Gal6P(b1-4)GlcNAc": {"target": "Gal6P(b1-4)GlcNAc", "in_short": "as §1"}, "Gal6S(b1-3)GlcNAc": {"target": "Gal6S(b1-3)GlcNAc", "in_short": "as §1"}, "Gal6S(b1-3)GlcNAc6S": {"target": "Gal6S(b1-3)GlcNAc6S", "in_short": "as §1"}, "Gal6S(b1-4)Glc": {"target": "Gal6S(b1-4)Glc", "in_short": "as §1"}, "Gal6S(b1-4)Glc6S": {"target": "Gal6S(b1-4)Glc6S", "in_short": "as §1"}, "Gal6S(b1-4)GlcNAc": {"target": "Gal6S(b1-4)GlcNAc", "in_short": "as §1"}, "Gal6S(b1-4)GlcNAc6S": {"target": "Gal6S(b1-4)GlcNAc6S", "in_short": "as §1"}, "GalNAc(a1-3)Gal": {"target": "GalNAc(a1-3)Gal", "in_short": "as §1"}, "GalNAc(a1-3)GalNAc": {"target": "GalNAc(a1-3)GalNAc", "in_short": "as §1"}, "[1]": {"target": "GalNAc(a1-3)GalNAc(b1-3)Gal(a1-4)Gal(b1-4)Glc", "in_short": "as §1"}, "[2]": {"target": "GalNAc(a1-3)GalNAc(b1-3)Gal(a1-4)Gal(b1-4)GlcNAc", "in_short": "as §1"}, "GalNAc(b1-3)Gal": {"target": "GalNAc(b1-3)Gal", "in_short": "as §1"}, "[3]": {"target": "GalNAc(b1-3)Gal(a1-4)Gal(b1-4)GlcNAc", "in_short": "as §1"}, "[4]": {"target": "GalNAc(b1-3)Gal(a1-4)Gal(b1-4)GlcNAc(b1-3)Gal(b1-4)Glc", "in_short": "as §1"}, "[5]": {"target": "GalNAc(b1-3)Gal(a1-6)Gal(b1-4)Glc", "in_short": "as §1"}, "GalNAc(b1-3)GalNAc": {"target": "GalNAc(b1-3)GalNAc", "in_short": "as §1"}, "GalNAc(b1-3)GlcNAc": {"target": "GalNAc(b1-3)GlcNAc", "in_short": "as §1"}, "GalNAc(b1-4)Gal(b1-4)Glc": {"target": "GalNAc(b1-4)Gal(b1-4)Glc", "in_short": "as §1"}, "GalNAc(b1-4)GlcNAc": {"target": "GalNAc(b1-4)GlcNAc", "in_short": "as §1"}, "[6]": {"target": "GalNAc(b1-4)GlcNAc(b1-2)Man", "in_short": "as §1"}, "[7]": {"target": "GalNAc(b1-4)GlcNAc(b1-2)Man(a1-3)[GalNAc(b1-4)GlcNAc(b1-2)Man(a1-6)]Man(b1-4)GlcNAc(b1-4)GlcNAc", "in_short": "as §1"}, "[8]": {"target": "GalNAc(b1-4)GlcNAc(b1-3)GalNAc(b1-4)GlcNAc", "in_short": "as §1"}, "GalNAc(b1-4)GlcNAc6S": {"target": "GalNAc(b1-4)GlcNAc6S", "in_short": "as §1"}, "GalNAc(b1-6)GalNAc": {"target": "GalNAc(b1-6)GalNAc", "in_short": "as §1"}, "GalNAc3S(b1-4)GlcNAc": {"target": "GalNAc3S(b1-4)GlcNAc", "in_short": "as §1"}, "GalNAc3S(b1-4)GlcNAc3S": {"target": "GalNAc3S(b1-4)GlcNAc3S", "in_short": "as §1"}, "[9]": {"target": "GalNAc3S(b1-4)[Fuc(a1-3)]GlcNAc", "in_short": "as §1"}, "GalNAc4S6S(b1-4)GlcNAc": {"target": "GalNAc4S6S(b1-4)GlcNAc", "in_short": "as §1"}, "GalNAc6S(b1-4)GlcNAc": {"target": "GalNAc6S(b1-4)GlcNAc", "in_short": "as §1"}, "Glc(a1-4)Glc": {"target": "Glc(a1-4)Glc", "in_short": "as §1"}, "[10]": {"target": "Glc(a1-4)Glc(a1-4)Glc(a1-4)Glc", "in_short": "as §1"}, "Glc(a1-6)Glc(a1-6)Glc": {"target": "Glc(a1-6)Glc(a1-6)Glc", "in_short": "as §1"}, "[11]": {"target": "Glc(a1-6)Glc(a1-6)Glc(a1-6)Glc", "in_short": "as §1"}, "Glc(b1-4)Glc": {"target": "Glc(b1-4)Glc", "in_short": "as §1"}, "Glc(b1-6)Glc": {"target": "Glc(b1-6)Glc", "in_short": "as §1"}, "GlcA(b1-3)Gal": {"target": "GlcA(b1-3)Gal", "in_short": "as §1"}, "GlcA(b1-3)GlcNAc": {"target": "GlcA(b1-3)GlcNAc", "in_short": "as §1"}, "GlcA(b1-6)Gal": {"target": "GlcA(b1-6)Gal", "in_short": "as §1"}, "[12]": {"target": "GlcA3S(b1-3)Gal(b1-4)GlcNAc(b1-2)Man", "in_short": "as §1"}, "[13]": {"target": "GlcA3S(b1-3)Gal(b1-4)GlcNAc(b1-3)Gal(b1-4)Glc", "in_short": "as §1"}}, "note": "The other results are listed elsewhere or left out."}
{"binder": "B1", "values": [{"measurement": "glycan array binding signal (z-score)", "setting": "Gal3S4S(b1-4)GlcNAc", "value": -0.092}, {"measurement": "glycan array binding signal (z-score)", "setting": "Gal3S6S(b1-4)GlcNAc", "value": -0.175}, {"measurement": "glycan array binding signal (z-score)", "setting": "Gal3S6S(b1-4)GlcNAc6S", "value": 0.724}, {"measurement": "glycan array binding signal (z-score)", "setting": "Gal4S(b1-4)GlcNAc", "value": -0.142}, {"measurement": "glycan array binding signal (z-score)", "setting": "Gal4S6S(b1-4)GlcNAc", "value": -0.237}, {"measurement": "glycan array binding signal (z-score)", "setting": "Gal6P(b1-4)GlcNAc", "value": -0.07}, {"measurement": "glycan array binding signal (z-score)", "setting": "Gal6S(b1-3)GlcNAc", "value": -0.086}, {"measurement": "glycan array binding signal (z-score)", "setting": "Gal6S(b1-3)GlcNAc6S", "value": -0.103}, {"measurement": "glycan array binding signal (z-score)", "setting": "Gal6S(b1-4)Glc", "value": -0.139}, {"measurement": "glycan array binding signal (z-score)", "setting": "Gal6S(b1-4)Glc6S", "value": -0.207}, {"measurement": "glycan array binding signal (z-score)", "setting": "Gal6S(b1-4)GlcNAc", "value": 0.165}, {"measurement": "glycan array binding signal (z-score)", "setting": "Gal6S(b1-4)GlcNAc6S", "value": -0.068}, {"measurement": "glycan array binding signal (z-score)", "setting": "GalNAc(a1-3)Gal", "value": 0.164}, {"measurement": "glycan array binding signal (z-score)", "setting": "GalNAc(a1-3)GalNAc", "value": -0.154}, {"measurement": "glycan array binding signal (z-score)", "setting": "[1]", "value": -0.113}, {"measurement": "glycan array binding signal (z-score)", "setting": "[2]", "value": -0.056}, {"measurement": "glycan array binding signal (z-score)", "setting": "GalNAc(b1-3)Gal", "value": -0.128}, {"measurement": "glycan array binding signal (z-score)", "setting": "[3]", "value": -0.18}, {"measurement": "glycan array binding signal (z-score)", "setting": "[4]", "value": -0.092}, {"measurement": "glycan array binding signal (z-score)", "setting": "[5]", "value": -0.08}, {"measurement": "glycan array binding signal (z-score)", "setting": "GalNAc(b1-3)GalNAc", "value": -0.082}, {"measurement": "glycan array binding signal (z-score)", "setting": "GalNAc(b1-3)GlcNAc", "value": -0.086}, {"measurement": "glycan array binding signal (z-score)", "setting": "GalNAc(b1-4)Gal(b1-4)Glc", "value": -0.071}, {"measurement": "glycan array binding signal (z-score)", "setting": "GalNAc(b1-4)GlcNAc", "value": -0.161}, {"measurement": "glycan array binding signal (z-score)", "setting": "[6]", "value": -0.134}, {"measurement": "glycan array binding signal (z-score)", "setting": "[7]", "value": 0.024}, {"measurement": "glycan array binding signal (z-score)", "setting": "[8]", "value": -0.099}, {"measurement": "glycan array binding signal (z-score)", "setting": "GalNAc(b1-4)GlcNAc6S", "value": -0.038}, {"measurement": "glycan array binding signal (z-score)", "setting": "GalNAc(b1-6)GalNAc", "value": -0.114}, {"measurement": "glycan array binding signal (z-score)", "setting": "GalNAc3S(b1-4)GlcNAc", "value": -0.102}, {"measurement": "glycan array binding signal (z-score)", "setting": "GalNAc3S(b1-4)GlcNAc3S", "value": -0.092}, {"measurement": "glycan array binding signal (z-score)", "setting": "[9]", "value": -0.109}, {"measurement": "glycan array binding signal (z-score)", "setting": "GalNAc4S6S(b1-4)GlcNAc", "value": -0.069}, {"measurement": "glycan array binding signal (z-score)", "setting": "GalNAc6S(b1-4)GlcNAc", "value": -0.057}, {"measurement": "glycan array binding signal (z-score)", "setting": "Glc(a1-4)Glc", "value": 0.241}, {"measurement": "glycan array binding signal (z-score)", "setting": "[10]", "value": -0.094}, {"measurement": "glycan array binding signal (z-score)", "setting": "Glc(a1-6)Glc(a1-6)Glc", "value": -0.089}, {"measurement": "glycan array binding signal (z-score)", "setting": "[11]", "value": 0.012}, {"measurement": "glycan array binding signal (z-score)", "setting": "Glc(b1-4)Glc", "value": -0.12}, {"measurement": "glycan array binding signal (z-score)", "setting": "Glc(b1-6)Glc", "value": 0.568}, {"measurement": "glycan array binding signal (z-score)", "setting": "GlcA(b1-3)Gal", "value": -0.077}, {"measurement": "glycan array binding signal (z-score)", "setting": "GlcA(b1-3)GlcNAc", "value": -0.12}, {"measurement": "glycan array binding signal (z-score)", "setting": "GlcA(b1-6)Gal", "value": 0.376}, {"measurement": "glycan array binding signal (z-score)", "setting": "[12]", "value": -0.095}, {"measurement": "glycan array binding signal (z-score)", "setting": "[13]", "value": -0.081}]}
